# Screen size: about 150,000 compounds; about 540 (0.36%) showed an effect of 50% or more. This is one part of the list.
# System: Plasmodium falciparum
# Assay: Primary screen in NF54 nanoGlo assay, in single point, at 2uM, 72h; a lower Z score goes with more inhibition
# Format: functional, Erythrocyte
# Conditions: timepoint 72 hour
Compound,% Inhibition [%],Z score
Cc1ccccc1Cn1nc(C(C)C)nc1CCCC(N)=O,-2,0.27
CC(NC(=O)C1CCN(S(=O)(=O)c2ccc3c(c2)CCC3)CC1)C1CC2CCC1C2 (centres undefined),1,-0.22
COc1cccc(C(=O)N2CCN(C(=O)c3ccc4nc(C)c(C)nc4c3)CC2)c1,9,-1.23
Cc1cc(CN(C)C(=O)N[C@H](c2cccs2)C2CCCCC2)on1,0,-0.02
Nc1nnc([C@H]2CCCN(Cc3ccc4cnccc4c3)C2)o1,-17,1.96
NC(=O)c1csc(CCN2C(=O)c3ccccc3C2=O)n1,26,-2.95
Cc1nc(C#N)c(C#N)n1Cc1nc(-c2cccs2)no1,-5,0.69
CC[C@@H](C(=O)N1CCc2ccccc21)n1cnc2onc(-c3ccc(Cl)cc3)c2c1=O,-2,0.42
COCCn1ccnc1-c1[nH]cnc1-c1ccccc1,3,-0.45
COc1cccc(CNC(=O)Cn2ccc3ccc(N4CCCCCC4)nc32)c1,-11,1.52
Cc1sc(C)c(S(=O)(=O)Nc2ccccc2Cl)c1-c1cc(C(F)(F)F)on1,-1,0.09
Cc1n[nH]c(C)c1CC(=O)N(C)CC1(CO)CCCC1,-1,0.18
NC(=O)Cc1cccc(NC(=O)N[C@H]2COC[C@@H]2N2CCCCC2)c1,17,-2.13
Cc1nnc2n1CCN(CC(=O)NC1(C#N)CCCC1)C2,3,-0.51
C[C@H](O)c1onc(-c2cccs2)c1C(=O)NC(C)(C)C,32,-3.57
Cn1cnc(CCNS(=O)(=O)c2cn(C)nc2C2CCCC2)c1,-6,0.92
Cc1nc(NCc2cc3n(n2)CCN(CC(C)C)C3)c2cccnc2n1,-9,0.98
O=C(c1cnc(-c2cccnc2)nc1)N1C[C@H]2CC[C@@H](C1)N(CC1CC1)C2,-1,0.24
CCN(C[C@H](O)c1cccc(O)c1)C(=O)NCc1n[nH]c(C)n1,-18,2.61
O=C(NCCN1CCCOCC1)c1cnc(-c2ccccn2)s1,-19,2.67
CCN(CCC(F)(F)F)C(=O)Nc1cccc(Cl)c1OC,-7,0.67

Compound,% Inhibition [%],Z score
O=C(c1ccnc(-c2ccoc2)c1)N1CCOCC1,-6,1
COc1ccc(N2C[C@@H](C(=O)N(C)Cc3cc(C)on3)CC2=O)cc1,4,-0.56
CCNC(=O)Cn1ccc(NC(=O)c2cccnc2OCC(C)C)n1,-2,0.25
Cc1ccc(-c2ccnc(-c3cccc(CN)c3)n2)c(C)n1,1,-0.1
Cc1cc([C@@H]2CCCN2c2ncnc3c2CN(C)CC3)no1,0,0.04
CCCc1cc(C(=O)N(CCO)CC2CCCCC2)no1,0,-0.05
CN(Cc1nc(O)c2ccccc2n1)C(=O)c1cccc(S(=O)(=O)N2CCCC2)c1,-15,2.33
Cc1cc(NC(=O)N2CCCN3CCC[C@H]3C2)ccc1F,-16,2.36
Cc1nc(C)c(COc2ccc3c(c2)CCNC3=O)s1,-8,1.52
O=C1C[C@H](CNc2nccc3cccnc23)CN1C1CC1,-11,1.72
C[C@H]1CN(C(=O)CN(C)Cc2ccc(Cl)s2)CCO1,-1,0.17
CC(C)(C)c1cn(-c2cccc(S(F)(F)(F)(F)F)c2)nn1,-5,0.6
CC#CCNC(=O)NCC(C)(C)CC1CCOCC1,-4,0.43
COc1ccc(CCNC(=O)c2ccc(N3C(=O)N4CCc5c([nH]c6ccccc56)[C@@]4(C)C3=O)cc2)cc1,2,-0.46
CC(C)C(=O)Nc1ccc(-n2cnc(C(=O)N3CCCCCC3)c2)nc1,-11,1.77
COCc1ncc2c(n1)CCN(C[C@H](C)c1ccc(OC)cc1)C2,-1,0.19
CC(C)(O)Cn1nc(COc2cccc(F)c2)nc1[C@]1(C)CCCO1,-10,1.88
O=C1CCCCCN1C(=O)c1ccccc1F,-13,2.26
C=CCN1CCC[C@H]1C(=O)NC1(Cc2ccccc2C)CC1,-2,0.31
O=C(COc1ccccc1)NCc1nc([C@H]2CC(=O)N(Cc3ccccc3)C2)no1,1,-0.08
COC[C@@H]1CN(C(=O)c2nccc3ccccc23)C[C@H]1c1nc(C)no1,-9,1.57
